Some of the results follow.

T1: UNK ZnF1-3 (human, UniProt Q9C0B0 31-174)
T1 sequence: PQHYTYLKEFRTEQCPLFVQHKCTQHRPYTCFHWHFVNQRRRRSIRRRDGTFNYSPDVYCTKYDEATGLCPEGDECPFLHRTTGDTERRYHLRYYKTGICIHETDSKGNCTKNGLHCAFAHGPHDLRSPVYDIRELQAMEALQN

B1: chr9:33280828:33280829:+_ENSG00000086065_ENST00000223500|hu_mus|FALSE|FALSE (ssRNA)
RNA: GGGAGUUCUACAGUCCGACGAUCAGUCCCAGAAUACUUCUCUUGUUGUUUCACAUCACGUGCUGGAAUGUUGUAAGUCUACGAAGCGGGAAUCUGCGGCAGUCCAAAUUCAUCCACCAGCACGCCAUCCUUGUUUUUUGUGUCCAACAGAGGAUUGAGCAUCA
B2: chr12:100720429:100720430:+_ENSG00000136021_ENST00000360820|hu_hu|FALSE|FALSE (ssRNA)
RNA: GGGAGUUCUACAGUCCGACGAUCGAAGGGUAGGAUAUCAUCAAGUACAAACCACUUAUCCAAGUAUUCCAAAAUCUUUCCUAAGCACACUAAUGAAUUUACACGAACCGCAAGGGAAGAUGUUUGUAGACAAGCAUUUUUAAUCAACAGAGGAUUGAGCAUCA
B3: 27456574_27456893_3519_CDS_ENSG00000084774_ENST00000264705|human|control|control (ssRNA)
RNA: GGGAGUUCUACAGUCCGACGAUCGGCAUCCACGUCAAUCUCCUUAGCCUCCUGGAUGAACUUGGAGAUGACCACGGGAUGCUCUUUGGAGACGGCUGCUGCGCUGCUCAGGAAGCGCUCCAGGUCUCCAUCCGUGUAGGCCACCAACAGAGGAUUGAGCAUCA
B4: chr15:99827826:99827827:+_ENSMUSG00000023025_ENSMUST00000100206|mus_mus|FALSE|FALSE (ssRNA)
RNA: GGGAGUUCUACAGUCCGACGAUCAUUCAUAGCAGCAGCAUUUGUUUUGUAAGAUCCUGGUGAACUAAAGCCAUUCACAAAACUACCAUUGGGAAAGGGAGCCAGUGGUGUUUCAAAGUAAGGUGCAGGACUUGGAGACCAAGACAACAGAGGAUUGAGCAUCA
B5: chr1:187239687:187239688:+_ENSMUSG00000026615_ENSMUST00000046514|mus_mus|motif|central (ssRNA)
RNA: GGGAGUUCUACAGUCCGACGAUCCCAGGAGCACUGGUAUGCAAACUGCUUUUCUCCUGGUGUCUUGGGAUCUUCAAAAACGGUUUCACACAUUUUGGAGAAAUUCUGGCCUAAAUGGUGUGAUGUUGCUCCCUGAAUGGCGCGCAACAGAGGAUUGAGCAUCA
B6: 27957480_27965475_398_CDS_ENSG00000134014_ENST00000521015|human|control|control (ssRNA)
RNA: GGGAGUUCUACAGUCCGACGAUCCUGGGUGGAAUACUCAAAAUCAGAAUCAGGUCCACCAGGGCAGUAUACACAUAUAUUUCCUGUAAAACUGAUGUGUGGACAUCUGUGGGGUUUGCACAUCACAGCCACGACAGCAAUCCCCAACAGAGGAUUGAGCAUCA
B7: chr8:101271117:101271118:-_ENSG00000034677_ENST00000519449|hu_hu|FALSE|FALSE (ssRNA)
RNA: GGGAGUUCUACAGUCCGACGAUCAUAAUCACUGGAACCAUGACUACAAGAAGUUUUCAUGCUUUCUAGGUCAGAACAACUAAAUUCAGAAAAAUGACUAGAGUGAGAAUCUGCUACAGAAGGCAUACUGUCACUGAGGGAUGGCAACAGAGGAUUGAGCAUCA
B8: 43502077_43507884_1890_CDS_ENSMUSG00000038546_ENSMUST00000144326|mouse|control|control (ssRNA)
RNA: GGGAGUUCUACAGUCCGACGAUCUAAGCUGAAUGCGUCCUUCAGCAUUUUCUUAUUUGCUGUGUUCUUGCCACAUUCUCUCCUCAGCUGCUCACUCAUGGCUUGUAGCUCUCGGCCAAAGUGAAUCAUCCUCUCUAUGGCAGCCAACAGAGGAUUGAGCAUCA
B9: chr2:48026839:48026840:+_ENSG00000116062_ENST00000540021|hu_hu|hu_hu_hu_mus_False|28_78 (ssRNA)
RNA: GGGAGUUCUACAGUCCGACGAUCAUAGUGAGCCACUAGCGUCCUAAAUCUGGAACAAUGGCGAUCAUCCGAAAACUGGCCGAUGAAAAACUUGCCCAGUGAAGUGUCAACAAAGCAAACACCAUACACACGAGUGUGACCAGACAACAGAGGAUUGAGCAUCA
B10: 91957201_91972444_1210_CDS_ENSG00000001629_ENST00000265742|human|control|control (ssRNA)
RNA: GGGAGUUCUACAGUCCGACGAUCGGCAUUAUACCCACUUGGUGGUGGAGUUGGCAUUUGAACACCUGAUCGUUGGCAGCAGUUCUCCGGGUUGGACAUCCAAGCUUCAAGUAAUUUCUCCCUGUCCCAGUCAUGAGCUCGAAGCAACAGAGGAUUGAGCAUCA
B11: 45479340_45479460_530_CDS_ENSG00000126088_ENST00000246337|human|control|control (ssRNA)
RNA: GGGAGUUCUACAGUCCGACGAUCGGCACCAGCAAAGCCAAUCAGCGGCACACGUCCAGCCAGUCGUUGUCGGGUAAGGGUGAUGGCUUGGAACACAUAGCCUAGCUCAGAGGCUACCACUUCUGGAUCCCGUAGGCGUUCUAGCAACAGAGGAUUGAGCAUCA
B12: chr16:16330038:16330039:-_ENSMUSG00000022789_ENSMUST00000023477|mus_mus|motif|central (ssRNA)
RNA: GGGAGUUCUACAGUCCGACGAUCACUUUUAUCAUCCACCGGUUCACCAUAGCUAUUUAGAAGAGACUGAUACUGAGCAGCGGAGACAUUUAUUCUUGUUUUCAGCUCUGGUAAACAAUCUCUGAUAUGAUGCAUAAGUAACCUCAACAGAGGAUUGAGCAUCA
B13: 111717365_111717485_9314_ncRNA_ENSMUSG00000033209_ENSMUST00000156290|mouse|control|control (ssRNA)
RNA: GGGAGUUCUACAGUCCGACGAUCCACAUCUGAGACAAAUAGAAAGCAGCCCAGGUACCAAUUUGCUCUUCAGUGUCAGUCAGAGGAAAAACAGCGUACCUAGGCAGCCUGGGAGUCCUCCUCCAUGGCUUGGCAACCACACAUCAACAGAGGAUUGAGCAUCA
B14: chr2:160605324:160605325:+_ENSG00000136536_ENST00000409591|hu_hu|FALSE|FALSE (ssRNA)
RNA: GGGAGUUCUACAGUCCGACGAUCUCUUGAAGGCGCACUUUUAGUUUUAUCACUUUUACCAUCAGCUGAAUUCCAACCUGAAGGAAUAAUAUCUACUGUGAUCAUGACAUUGUCGGUCAAAUUACUCCCAAGUGCUGGAGGGACCAACAGAGGAUUGAGCAUCA
B15: 32339383_32339624_2503_CDS_ENSMUSG00000024002_ENSMUST00000121285|mouse|control|control (ssRNA)
RNA: GGGAGUUCUACAGUCCGACGAUCCUGCUGCUGCGGAGGUGGGGGUGGAGGAGGCUGCUGUGGAGGUGGGGGCGGCUGCUGGGGCACAGGAGCUGGGGCUGGCUGCAUCUGUGGAUGGUGAUGGUGAUGAUGCUUUUUCUGGUCCAACAGAGGAUUGAGCAUCA
B16: 95464784_95464904_1230_3pUTR_ENSMUSG00000038612_ENSMUST00000037947|mouse|control|control (ssRNA)
RNA: GGGAGUUCUACAGUCCGACGAUCAUCCUGUAGCCACUUUCUUUUUGCUAUGUUGCUACAGUAGAACUGGACUGUUAAAAUCCUGGGCAGCUUCAAGUCCACCUUCAUAAAUACACAUGUUUUCACAGAUGCAUGUAGUUUGGUCAACAGAGGAUUGAGCAUCA
B17: chr2:5814250:5814251:-_ENSMUSG00000025816_ENSMUST00000102981|mus_hu|mus_mus_mus_hu_True|1_1 (ssRNA)
RNA: GGGAGUUCUACAGUCCGACGAUCUUCCUUUCCGGUUUCUGAAUUUCUGGUAGAACUGCACAGAAUGGUUUGAUAACUUCUAAAAAUUUGAUGCCCAUGGCUGCUGCUGGGGAGGCCCAGGGGGAAACCGCGGCCUCGCAGCUGCAACAGAGGAUUGAGCAUCA
B18: chr8:42798479:42798480:+_ENSG00000168172_ENST00000307602|hu_mus|FALSE|FALSE (ssRNA)
RNA: GGGAGUUCUACAGUCCGACGAUCCGAAUGCUCCCCAAUGAGGUUCACGUCAGGAAGGGUGAAAUCAUUAAUCUGCUGUCCUAAAAUCUCAUGAUUGUAAUCCAAGAUGCCUUUUAAAAUUUUCUUUAAAUUGCUGAUCUUUAACAACAGAGGAUUGAGCAUCA
B19: 41321216_41322438_582_CDS_ENSMUSG00000025016_ENSMUST00000025989|mouse|control|control (ssRNA)
RNA: GGGAGUUCUACAGUCCGACGAUCAUUAAAGCCUAUUUCAAGUUUUUUGUAGGUCCAAAGAUAGUAAUCUUCCCCAUUUUCAUCUGCUUCACCAACAAUACCCCAUAUUGGUAAGUCAUCUAUGUACAUCUGAUACCAAUAGUGCAACAGAGGAUUGAGCAUCA
B20: 99534180_99535334_2638_CDS_ENSG00000088387_ENST00000339416|human|control|control (ssRNA)
RNA: GGGAGUUCUACAGUCCGACGAUCUCUGGUGAGGACUCGGAACAGCUGGUUUAGGAUAGUGGGCAAGAAGGCGAUCAUCACGUGGCCUUCCAUCGCAUGCAGACUCUUAAGGUACUUUACAAGUUCGUUUCCUAAGGCUUGGGCCAACAGAGGAUUGAGCAUCA
B21: chr17:62499630:62499631:-_ENSG00000108654_ENST00000581693|hu_mus|FALSE|FALSE (ssRNA)
RNA: GGGAGUUCUACAGUCCGACGAUCAGCACCACCAUAGAUGCAAGUAGACUUCAAGCGACAAGCUCGACAAUAUUCAGCAGCCACUUGCUGCACCUGCUGUGCCAGUUCUCGAGUUGGUGCCAGCACCAAGCAAAUAGGCCCAUCCAACAGAGGAUUGAGCAUCA
B22: chr2:47387770:47387771:-_ENSG00000143933_ENST00000272298|hu_hu|FALSE|FALSE (ssRNA)
RNA: GGGAGUUCUACAGUCCGACGAUCAAGGUUUUAGGACAAUGACAGUAAGAUAAGGGAAGAAAACAUGGAGGAAUGAAGUCCUAAUUACUAUACAUGCAUAUUUUUUUGACAGUAGGGAGAAACCUUUUACAGAUAAGUUACAAACAACAGAGGAUUGAGCAUCA

The experiment addresses T1, UNK ZnF1-3. The experiment is described as follows: nsRBNS (natural sequence RNA bind-n-seq); RBNS binding buffer (assumed for nsRBNS): 25 mM Tris pH 7.5, 150 mM KCl, 3 mM MgCl2, 0.01% Triton X-100, 500 ug/ml BSA, 20 U/ml SUPERase-In, 4 C; UNK is unkempt and MSI1 is Musashi-1; names of the RNAs are library labels; protein concentration not given here; high values mean tight binding.
The molecule B1 gave a binding signal of 0.784 enrichment R. In turn, B2 came in with a binding signal of 0.87 enrichment R. To B3 belongs 0.534 enrichment R. In the case of B4, the binding signal was 1.6 enrichment R. The molecule B5 yielded a binding signal of 0.719 enrichment R.

For the molecule B6, the binding signal is 1.03 enrichment R. To B7 belongs 1.2 enrichment R; to B8, 0.489 enrichment R. For B9 the value was 1.35 enrichment R; for B10, 2.17 enrichment R. For the molecule B11, the binding signal was 1.61 enrichment R. For B12 the value was 0.972 enrichment R; for B13, 0.452 enrichment R; for B14, 1.01 enrichment R. In the case of B15, the binding signal came out at 1.16 enrichment R. B16 returned a binding signal of 0.398 enrichment R.

For B17, the binding signal was 1.07 enrichment R. In turn, B18 had a binding signal of 1.36 enrichment R. On to B19, for which the binding signal was 0.588 enrichment R.

As for B20, the binding signal was found to be 1.02 enrichment R. In the case of B21, the binding signal turned out to be 1.67 enrichment R. As to B22, the binding signal is 1.8 enrichment R.

For the origin of these results see article PMC12136788.
